Results taken from the supplement of paper PMC6089552.
In all, about 3,200 compounds went through this assay and about 300 (9.4%) showed activity. The entries are a selection whose mix differs from that of the whole data set.

Test system: A673/TR/shEF
Test: cell viability (LOESS-normalised, relative to median of negative controls) (log2 ratio); higher = more viable cells (less compound effect), active = hit call of the paper (over 3 MAD below the median)
Conditions: treatment time: 72 h
Outline: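 Doxycycline, present or absent from 24 h before compounds, was used to induce EWS-FLI1 shRNA knockdown in A673/TR/shEF Ewing sarcoma cells at 1,500 per well in 384-well plates. Cells then received library compounds at two or more concentrations, or DMSO controls, for three days. Viability was measured by CellTiter-Glo luminescence on an Envision reader, and per-plate LOESS correction, division by the negative-control median and log2 transformation followed.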

[1] = 0.25 µM, library screen: screen1, EWS-FLI1 expression: high (no doxycycline)
[2] = 0.25 µM, library screen: screen1, EWS-FLI1 expression: low (doxycycline-induced shRNA knockdown)
[3] = 2.5 µM, library screen: screen1, EWS-FLI1 expression: high (no doxycycline)
[4] = 2.5 µM, library screen: screen1, EWS-FLI1 expression: low (doxycycline-induced shRNA knockdown)
[5] = 0.25 µM, library screen: screen2, EWS-FLI1 expression: high (no doxycycline)
[6] = 0.25 µM, library screen: screen2, EWS-FLI1 expression: low (doxycycline-induced shRNA knockdown)
[7] = 2.5 µM, library screen: screen2, EWS-FLI1 expression: high (no doxycycline)
[8] = 2.5 µM, library screen: screen2, EWS-FLI1 expression: low (doxycycline-induced shRNA knockdown)
[9] = 0.103 µM, library screen: screen3, EWS-FLI1 expression: high (no doxycycline)
[10] = 0.103 µM, library screen: screen3, EWS-FLI1 expression: low (doxycycline-induced shRNA knockdown)
[11] = 0.308 µM, library screen: screen3, EWS-FLI1 expression: high (no doxycycline)
[12] = 0.308 µM, library screen: screen3, EWS-FLI1 expression: low (doxycycline-induced shRNA knockdown)
[13] = 0.926 µM, library screen: screen3, EWS-FLI1 expression: high (no doxycycline)
[14] = 0.926 µM, library screen: screen3, EWS-FLI1 expression: low (doxycycline-induced shRNA knockdown)
[15] = 2.8 µM, library screen: screen3, EWS-FLI1 expression: high (no doxycycline)
[16] = 2.8 µM, library screen: screen3, EWS-FLI1 expression: low (doxycycline-induced shRNA knockdown)
[17] = 8.3 µM, library screen: screen3, EWS-FLI1 expression: high (no doxycycline)
[18] = 8.3 µM, library screen: screen3, EWS-FLI1 expression: low (doxycycline-induced shRNA knockdown)
[19] = 25 µM, library screen: screen3, EWS-FLI1 expression: high (no doxycycline)
[20] = 25 µM, library screen: screen3, EWS-FLI1 expression: low (doxycycline-induced shRNA knockdown)

Measured: cell viability (log2)

COc1cc2c(cc1OC)[C@@H]1C(=O)c3c(O)cc4c(c3O[C@@H]1CO2)C=CC(C)(C)O4
active: [1] -0.205 | [2] -0.261 | [3] -0.213
inactive: [4] -0.138

N=C(N)c1ccc(N)cc1
inactive: [5] 0.132 | [6] 0.0859 | [7] 0.0987 | [8] 0.121

CCCN(CCC)CCc1cccc2c1CC(=O)N2
active: [5] -0.0806 | [6] -0.203 | [7] -3.18 | [8] -2.79

CCN1CCN(C(=O)NC(C(=O)NC2C(=O)N3C(C(=O)O)=C(CSc4nnnn4C)CSC23)c2ccc(O)cc2)C(=O)C1=O (stereo unspecified)
inactive: [1] 0.138 | [2] 0.138 | [3] 0.0778 | [4] 0.154

COc1ccc2cc([C@H](C)C(=O)O)ccc2c1
inactive: [5] 0.155 | [6] 0.0708 | [7] 0.14 | [8] 0.0958

C[N+](C)(C)CC(O)CC(=O)O (stereo unspecified)
inactive: [1] 0.0407 | [2] 0.0603 | [3] 0.141 | [4] 0.165

CC(C)C[C@H](NC(=O)[C@H](CCC(=O)O)NC(=O)CNC(=O)c1ccc(/C=C/C(=O)O)cc1)C(N)=O
active: 0.025 µM, library screen: screen1, EWS-FLI1 expression: high (no doxycycline) -0.138

C[C@]12CCC(=O)C=C1[C@@H]1C[C@@H]1[C@H]1[C@@H]3[C@@H]4C[C@@H]4[C@@]4(CCC(=O)O4)[C@@]3(C)CC[C@@H]12
inactive: [9] 0.0134 | [10] 0.0343 | [11] -0.0173 | [12] -0.016 | [13] 0.0958 | [14] 0.0477 | [15] -0.09 | [16] -0.0296 | [17] -0.0227 | [18] 0.0426 | [19] -0.00242 | [20] -0.0168

CC(=O)OC1CC[C@@]2(C)C(CC[C@]3(C)C2CCC2C4CC(C)(C)CCC4(C(=O)O)CC[C@]23C)C1(C)C (stereo partly specified)
inactive: [1] 0.0992 | [2] 0.055 | [3] 0.145 | [4] 0.119

Nc1ncnc2c1ncn2[C@@H]1O[C@H](COP(=O)(O)OP(=O)(O)OP(=O)(O)OP(=O)(O)OC[C@@H]2O[C@H](n3cnc4c(N)ncnc43)C(O)[C@@H]2O)[C@H](O)C1O (stereo partly specified)
inactive: [5] 0.242 | [6] 0.0165 | [7] 0.141 | [8] 0.101

COc1ccccc1N1CCN(CCN(C(=O)c2ccc(I)cc2)c2ccccn2)CC1
inactive: [5] 0.184 | [6] 0.0785 | [7] 0.0431 | [8] 0.0688

CC1=C(/C=C/C(C)=C/C=C/C(C)=C/CO)C(C)(C)CCC1
inactive: [1] 0.148 | [2] 0.0325 | [3] 0.156 | [4] -0.0113

C/C=C(/C(=C/C)c1ccc(O)cc1)c1ccc(O)cc1
inactive: [1] 0.152 | [2] 0.172 | [3] 0.133 | [4] 0.163

O=C(O)c1ccccc1OP(=O)(O)O
inactive: [1] -0.0123 | [2] 0.00401 | [3] 0.0889 | [4] 0.118

COC(=O)c1c(C)cc(OC(=O)c2c(C)cc(O)c(C=O)c2O)c(C)c1O
inactive: [1] 0.0446 | [2] 0.137 | [3] 0.0984 | [4] 0.0852

OC1(c2ccc(Cl)cc2)CCN(Cc2c[nH]c3ccccc23)CC1
inactive: [5] 0.116 | [6] 0.165 | [7] 0.0719 | [8] 0.0584

CCC(C)C(=O)c1c(O)c(C)c2oc3c(C)c(O)c(C(=O)C(C)CC)c(O)c3c2c1O (stereo unspecified)
active: [3] -0.592

CCCCCCCC/C=C/CCCCCCCC(=O)OC(CO)COC(=O)CCCCCCCCCCCCCCC (stereo unspecified)
inactive: [5] 0.242 | [6] 0.101 | [7] 0.231 | [8] 0.152

CC1(C)S[C@@H]2[C@H](NC(=O)[C@H](N)c3ccccc3)C(=O)N2[C@H]1C(=O)O
inactive: [1] 0.0882 | [2] 0.14 | [3] 0.142 | [4] 0.206

CCCc1occc(=O)c1C=CO
inactive: [1] -0.0143 | [2] 0.0143 | [3] 0.203 | [4] 0.0516

O=c1n(CCCN2CCN(c3cccc(Cl)c3)CC2)nc2ccccn12
inactive: [9] 0.0271 | [10] -0.0162 | [1] 0.0857 | [2] 0.143 | [5] 0.142 | [6] 0.118 | [11] 0.0692 | [12] 0.0478 | [13] -0.0642 | [14] 0.0142 | [3] 0.104 | [4] 0.163 | [7] 0.117 | [8] 0.0439 | [15] 0.0622 | [16] 0.0232 | [17] 0.00929 | [18] 0.0658 | [19] 0.0202 | [20] 0.0456

CC(C)(O)[C@@H]1CC[C@](C)([C@H]2[C@@H](O)C[C@@]3(C)[C@@H]4C[C@H](O[C@@H]5O[C@H](CO)[C@@H](O)[C@H](O)[C@H]5O)[C@H]5C(C)(C)[C@@H](O[C@@H]6OC[C@@H](O)[C@H](O)[C@H]6O)CC[C@@]56C[C@@]46CC[C@]23C)O1
inactive: [9] 0.0688 | [10] 0.0886 | [11] 0.0588 | [12] 0.038 | [13] 0.056 | [14] 0.105 | [15] 0.044 | [16] -0.00938 | [17] 0.0806 | [18] 0.0911 | [19] 0.0188 | [20] 0.0301

CCN(CC)CC(=O)Nc1c(C)cccc1C
active: [19] -0.278
inactive: [9] 0.148 | [10] 0.0138 | [1] 0.147 | [2] 0.00307 | [5] 0.111 | [6] 0.106 | [11] 0.0507 | [12] 0.127 | [13] 0.13 | [14] 0.0501 | [3] 0.157 | [4] 0.131 | [7] 0.0975 | [8] 0.0477 | [15] 0.00489 | [16] 0.0234 | [17] 0.0246 | [18] 0.018 | [20] 0.0253

CC(=O)OCC(=O)[C@@]12OC(C)(C)O[C@@H]1C[C@H]1[C@@H]3C[C@H](F)C4=CC(=O)C=C[C@]4(C)[C@@]3(F)[C@@H](O)C[C@@]12C
inactive: [9] -0.0365 | [10] 0.072 | [1] 0.0987 | [2] -0.355 | [11] 0.00897 | [12] 0.0601 | [13] -0.0158 | [14] 0.0416 | [3] 0.179 | [4] -0.443 | [15] 0.0272 | [16] 0.123 | [17] -0.0208 | [18] 0.152 | [19] 0.0544 | [20] 0.0922

c1ccc2c(CC3=NCCN3)cccc2c1
inactive: [9] 0.0858 | [10] 0.112 | [1] -0.0243 | [2] -0.00825 | [5] 0.00769 | [6] 0.103 | [11] 0.126 | [12] -0.000103 | [13] 0.0423 | [14] 0.0423 | [3] 0.143 | [4] 0.0655 | [7] 0.0414 | [8] 0.0816 | [15] 0.00847 | [16] 0.0518 | [17] -0.0245 | [18] 0.0776 | [19] 0.0649 | [20] 0.0516

COC(=O)C1=CO[C@@H](C)[C@H]2CN3CCc4c([nH]c5ccccc45)[C@@H]3C[C@H]12
inactive: [1] 0.116 | [2] 0.0192 | [3] 0.164 | [4] 0.0681

O=C(O)[C@@H]1C[C@H](C(=O)O)N1
inactive: [5] 0.144 | [6] 0.11 | [7] 0.17 | [8] 0.113

NC(=O)NCCC[C@H](N)C(=O)O
inactive: [1] 0.1 | [2] 0.0189 | [3] 0.199 | [4] 0.0391

COc1ccc(-c2coc3cc(OC(C)=O)cc(OC(C)=O)c3c2=O)cc1
inactive: [1] 0.0854 | [2] -0.00831 | [3] 0.156 | [4] 0.114

NC(N)=NC(=O)c1nc(Cl)c(N)nc1N
inactive: [9] 0.1 | [10] -0.00692 | [1] 0.092 | [2] 0.142 | [5] 0.0653 | [6] 0.188 | [11] 0.116 | [12] 0.0975 | [13] 0.0536 | [14] 0.066 | [3] 0.116 | [4] 0.199 | [7] 0.119 | [8] 0.111 | [15] 0.129 | [16] 0.0594 | [17] 0.0568 | [18] 0.0415 | [19] 0.0877 | [20] 0.0677

O=c1oc2c(O)c(O)cc3c(=O)oc4c(O)c(O)cc1c4c23
inactive: 0.025 µM, library screen: screen2, EWS-FLI1 expression: high (no doxycycline) 0.118 | 0.025 µM, library screen: screen2, EWS-FLI1 expression: low (doxycycline-induced shRNA knockdown) 0.022 | [1] 0.026 | [2] 0.00636 | [5] -0.0123 | [6] 0.0256 | [3] 0.0418 | [4] -0.000232 | [7] 0.167 | [8] 0.128 | 25 µM, library screen: screen2, EWS-FLI1 expression: high (no doxycycline) 0.149 | 25 µM, library screen: screen2, EWS-FLI1 expression: low (doxycycline-induced shRNA knockdown) 0.0448

CC(=O)CC(c1ccccc1)c1c(O)c2ccccc2oc1=O (stereo unspecified)
inactive: [1] 0.0115 | [2] 0.135 | [3] 0.146 | [4] 0.078

NS(=O)(=O)c1cc2c(cc1Cl)NC(C1CC3C=CC1C3)NS2(=O)=O (stereo unspecified)
inactive: [5] 0.131 | [6] 0.0709 | [7] 0.0922 | [8] 0.118
